Measurements taken from PubChem BioAssay AID1345082 (National Center for Advancing Translational Sciences (NCATS), 2018).
Hit rate of the full screen: of about 94,000 compounds, about 4,000 (4.3%) were called active. This list was built around the results that the source calls inconclusive (neither active nor inactive); the mix of calls is not that of the screen. Calls follow the shape of the dose curve; as a rule, active = well fitted inhibition curve with a large enough effect; inconclusive = small, poorly fitted or top-dose-only effect; inactive = no such curve, though single readings can be large or run the other way. Where the call is inconclusive, the potency comes from a doubtful curve fit.
Potency is read from the fitted curve at half-maximal effect; tags tell the direction and shape of the fitted curve.

Assay: Cytotoxic Profiling in NIH 3T3 Cell Line of Diverse Libraries Using Quantitative High-Throughput Screening; also: nearly all actives have a fitted effect of over 55% in size
Conditions: NIH 3T3 viability, CellTiter-Glo ATP luminescence, 48-72 h; series mostly up to 96.7 µM
Method in brief: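 Cells were seeded at 400 per well, treated with pin-transferred compound, and kept 48 or 72 hr at 37 °C before CellTiter-Glo addition and luminescence imaging of cellular ATP.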
With `COc1ccc(C2Cn3nnc(C(=O)N4CCN(C(=O)Cc5ccccc5Cl)CC4)c3CO2)cc1` (stereo not given) the Potency was “inactive”. With `COc1ccc(Nc2ccc3nnc(-c4ccccn4)n3n2)cc1` the Potency was inconclusive: 56.2 µM [inhibitor, partial curve, poor fit]. With `COc1cccc(N2CCN(C(=O)c3cn4ccnc(-c5ccccc5)c4n3)CC2)c1` the Potency was inconclusive: 50.1 µM [inhibitor, partial curve, poor fit]. For `COC(=O)[C@H](Cc1ccc(OC)cc1)NC(=O)[C@H]1CN(C(=O)c2cccnc2)CCN1S(C)(=O)=O`, the Potency was “inactive”. With `c1coc(-c2ccnc(N[C@H]3CO[C@H]4[C@@H]3OC[C@@H]4NCC3CCCCC3)n2)c1` the Potency was inconclusive: 56.2 µM [inhibitor, partial curve, poor fit]. With `CCOc1ccccc1NC(=O)CN1C(=O)C(c2ccccc2)=NC12CCCCCC2` the Potency was inconclusive: 56.2 µM [inhibitor, partial curve, poor fit]. In the case of `N#Cc1ccc(C(=O)N2CCCCCCNC(=O)[C@@H]3C[C@@H](c4nc(Cc5ccccc5)no4)C[C@@H]32)cc1`, the Potency is reported as inconclusive: 50.1 µM [inhibitor, partial curve, poor fit]. With `COc1ccc(C(=O)N2CCC(C(NC(=O)c3ccccc3C)C(=O)NCC(C)C)CC2)cc1` (stereo not given) the Potency was inconclusive: 50.1 µM [inhibitor, partial curve, poor fit]. For `COc1ccccc1/C=C/CN1CCCC(CCC(=O)Nc2ccccc2F)C1` (stereo not given), the Potency was inconclusive: 89.1 µM [inhibitor, single point]. For `O=C(NCc1ccc(N2CCOCC2)cc1)c1cc[nH]c1C1CCCNC1` (stereo not given), the Potency was “inactive”. In the case of `CC(C)(C(=O)O)c1cnc(N2CC[C@@H](O)C2)nc1N1CCOCC1`, the Potency is reported as “inactive”. With `COCc1ccc2c(c1)c(OC(C)(C)C(=O)NC(C)C)nn2Cc1cccc(OC)c1` the Potency was inconclusive: 100 µM [inhibitor, partial curve, poor fit]. In the case of `COc1c(F)cccc1C(=O)N1CCc2onc(-c3ccccc3F)c2C1`, the Potency is reported as inconclusive: 56.2 µM [inhibitor, partial curve, poor fit]. For `Cc1cc(C)cc(C(=O)N2CCCC3(C2)NC(=O)N(Cc2cccc(Cl)c2)C3=O)c1` (stereo not given), the Potency was inconclusive: 63.1 µM [inhibitor, partial curve, poor fit]. With `COCc1cc(=O)n(CC(=O)Nc2ccc(F)c(Cl)c2)c(N2CCOCC2)n1` the Potency was inconclusive: 70.8 µM [inhibitor, single point]. In the case of `Fc1ccc(OCCOC2CCNCC2)cc1`, the Potency is reported as “inactive”. With `Cc1ccc(C)c(-n2nc(-c3c(C)nc4scc(CC(=O)NCc5ccco5)n4c3=O)cc2C)c1` the Potency was inconclusive: 50.1 µM [inhibitor, partial curve, poor fit]. With `COc1ccc(-c2cccc(C(=O)N3CCC(NC(=O)Nc4ccc(Cl)cc4)CC3)c2)nn1` the Potency was active: 25.1 µM. In the case of `O=C(NC[C@H]1OC[C@@H](NC2CCC2)[C@@H]1O)c1ccncc1`, the Potency is reported as “inactive”. In the case of `CN(Cc1ccccc1)Cc1cn([C@H]2CO[C@H]3[C@@H]2OC[C@@H]3NCC2CCCCC2)nn1`, the Potency is reported as inconclusive: 56.2 µM [inhibitor, partial curve, poor fit]. With `Cc1ccc(C(=O)N2CCC3(C2)NC(=O)c2ccccc2CO3)cc1` (stereo not given) the Potency was inconclusive: 89.1 µM [inhibitor, partial curve, poor fit]. With `O=C1CC2(CCN(C(=O)C3CCN(C(=O)c4ccc(C(F)(F)F)cc4)CC3)CC2)Oc2ccccc2N1` the Potency was inconclusive: 70.8 µM [inhibitor, partial curve, poor fit]. For `CN1C[C@H]2CN(Cc3ccc(C(F)(F)F)cc3)CCN2C1=O`, the Potency was inconclusive: 89.1 µM [inhibitor, partial curve]. For `COc1cc(CNCCc2ccccc2C)ccc1OCC(O)CN1CCOCC1` (stereo not given), the Potency was “inactive”. In the case of `O=C(c1ccc(F)c(Cl)c1)N1CCN(c2cc(-c3ccccc3)[nH]n2)CC1`, the Potency is reported as inconclusive: 44.7 µM [inhibitor, partial curve, poor fit]. In the case of `CNC(=O)Nc1ccc(C)n(CC(=O)N2CCN(c3ccccc3OC)CC2)c1=O`, the Potency is reported as “inactive”. In the case of `CNC(=O)[C@@H]1C[C@H](Oc2cccnc2)CN1C(=O)c1ccc(OC)nc1OC`, the Potency is reported as “inactive”. With `COc1cccc(N2C(=O)NC(=NC3CCCCC3)C23CCCN([S+](=O)([O-])c2cccc(C(F)(F)F)c2)C3)c1` (stereo not given) the Potency was inconclusive: 50.1 µM [inhibitor, partial curve, poor fit]. With `Cc1ccc(C(=O)N2CCC(n3cc(-c4nc(-c5ccccc5)no4)nn3)C2)cc1C` (stereo not given) the Potency was inconclusive: 44.7 µM [inhibitor, partial curve, poor fit]. With `CCC1Oc2ccc(NC(=O)COc3ccccc3)cc2CN(Cc2cc(F)cc(F)c2)C1=O` (stereo not given) the Potency was inconclusive: 17.8 µM [inhibitor, full curve]. For `COc1ccc(OC)c(-c2n[nH]c3c2CC(=O)N(CCOc2ccccc2)C3)c1`, the Potency was inconclusive: 50.1 µM [inhibitor, full curve]. For `COc1cccc(-c2c(C(=O)NCc3ccccc3Cl)nc3sccn23)c1`, the Potency was inconclusive: 25.1 µM [inhibitor, full curve]. For `Cc1ccc(S(=O)(=O)N2CCN(C3CCN(Cc4cccnc4)C3=O)CC2)cc1C` (stereo not given), the Potency was “inactive”. In the case of `O=C(Cc1ccsc1)N1CCC2(CC1)CC(OCC1CC1)CCO2` (stereo not given), the Potency is reported as “inactive”. With `O=C(Nc1cccc(Cl)c1)c1cnc2c(c1)N([S+](=O)([O-])c1cccnc1)CCC2` the Potency was inconclusive: 79.4 µM [inhibitor, partial curve]. In the case of `COc1ncc(CN2CCc3c(n(CCOc4ccccc4)n(-c4ccccc4)c3=O)C2)cn1`, the Potency is reported as inconclusive: 31.6 µM [inhibitor, full curve, poor fit]. For `Cc1nc(CN2C(=O)OC3(CCN(C(=O)c4cccnc4)CC3)C2(C)c2ccccc2)cs1` (stereo not given), the Potency was active: 44.7 µM. In the case of `COc1cc([C@@H]2c3cc4c(cc3[C@H](O)[C@@H](CO)[C@@H]2C(=O)NC2CCCC2)OCO4)cc(OC)c1OC`, the Potency is reported as inconclusive: 3.16 µM [inhibitor, full curve]. For `COc1ccc(C(=O)N2CCC(C(=O)N3CCC(c4nc5ncccc5[nH]4)CC3)C2)cc1` (stereo not given), the Potency was “inactive”. For `O=[S+]([O-])(Nc1cccnc1)c1ccc2c(c1)OCCN(Cc1ccsc1)C2`, the Potency was inconclusive: 10 µM [inhibitor, full curve, poor fit]. For `CN1CC(=O)N(C2CCNC2)Cc2c(NC3CCCCCC3)ncnc21` (stereo not given), the Potency was “inactive”. With `O=C(N[C@@H]1CCOC[C@H]1OCCO)C1(S(=O)(=O)c2ccccc2)CC1` the Potency was “inactive”. With `COc1ccc(-c2nc(Cn3c(-c4ccc(Cl)cc4)nc(C)c(CCO)c3=O)c(C)o2)cc1` the Potency was “inactive”. For `CC(C)NC(=O)c1ccc(-c2nnc3ccc(NC(=O)C4CCC4)cn23)cc1`, the Potency was “inactive”. For `CCc1nn(-c2ccccc2)c(Oc2ccccc2OC)c1CCC(=O)NCC1CC1`, the Potency was inconclusive: 50.1 µM [inhibitor, partial curve, poor fit]. For `COCCNC(=O)c1ccc(OC2CCN(Cc3cccc(SC)c3)CC2)c(Cl)c1`, the Potency was inconclusive: 50.1 µM [inhibitor, partial curve]. For `O=C(c1ccccc1Cl)N1CCN(c2nccc(Nc3ccccc3F)n2)CC1`, the Potency was inconclusive: 44.7 µM [inhibitor, partial curve, poor fit]. For `O=C(Nc1cccc(F)c1)Nc1ccc(=O)n2c1[C@@H]1C[C@@H](CN(C(=O)COc3ccccc3)C1)C2`, the Potency was inconclusive: 44.7 µM [inhibitor, partial curve]. In the case of `CNCc1cn(C[C@H]2O[C@@H](CC(=O)N3CCC[C@@H]3COC)[C@H](O)[C@@H]2O)nn1`, the Potency is reported as “inactive”. For `COc1ccc(CN2CCCC3(C2)C(=NC2CCCC2)NC(=O)N3c2cccc(OC)c2)cc1` (stereo not given), the Potency was inconclusive: 50.1 µM [inhibitor, partial curve, poor fit]. With `CNC(=O)c1cc(C2CC2)nc2c1c(C1CCCN(C(=O)Cc3ccccc3)C1)nn2C` (stereo not given) the Potency was “inactive”. With `Cc1ccc(-n2c(C3CCN(C(=O)CCc4ccccc4)CC3)n[nH]c2=O)cc1` the Potency was inconclusive: 4.47 µM [inhibitor, full curve, poor fit]. With `CCn1cc(C(=O)N2CCCC(C(=O)Nc3cccc(-c4cc5ccccc5[nH]4)c3)C2)cn1` (stereo not given) the Potency was inconclusive: 50.1 µM [inhibitor, partial curve, poor fit]. In the case of `O=C(c1cc(C2CC2)[nH]n1)N1CCc2c(nc(-c3ccccn3)[nH]c2=O)C1`, the Potency is reported as inconclusive: 31.6 µM [inhibitor, full curve]. In the case of `COc1ccccc1-c1[nH]nc2ncc(C(=O)Nc3cc(C)nn3C)nc12`, the Potency is reported as inconclusive: 112 µM [inhibitor, partial curve, poor fit]. For `O=C(NCCc1ccccc1)N1CCC(N2C(=O)C3(CCCCC3)C2c2ccncc2)CC1` (stereo not given), the Potency was “inactive”. With `COc1ccc(-c2cn(C)c(=O)n3cc(CN4CC[S+](=O)([O-])CC4)nc23)cn1` the Potency was inconclusive: 56.2 µM [inhibitor, partial curve, poor fit]. For `Cc1ccc(C(=O)N2CCC(Oc3ccc(NC(=O)c4ccccc4)cn3)C2)cc1` (stereo not given), the Potency was inconclusive: 31.6 µM [inhibitor, partial curve]. In the case of `COc1cccc(NC(=O)[C@@H]2C[C@H](c3cccc(C(F)(F)F)c3)N(Cc3cnn(C)c3)C2)c1`, the Potency is reported as inconclusive: 50.1 µM [inhibitor, partial curve, poor fit]. With `Cc1ccc(CN2C(=O)NC3(CCN(C(=O)Cc4cccc(F)c4)CC3)C2=O)cc1` the Potency was inconclusive: 50.1 µM [inhibitor, partial curve, poor fit].
